Test results taken from the supplement of paper PMC8728848.
The list shows a part of the results.

Legend:
Experiment in all cases: glycan array binding signal (z-score within array); higher = stronger binding
Conditions in all cases: glycan notation: IUPAC condensed, linker removed
[1] = molecular target: Gal(b1-4)GlcNAc(b1-6)GalNAc
Method in brief: (§1)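 The binding signal is a Z-score computed within each array and averaged over linkers. Arrays of the same protein sequence at different concentrations or buffers were also averaged together. Data originate from 3228 arrays in the Consortium for Functional Glycomics database, kept only where the protein sequence was available.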

[2] = molecular target: Gal(b1-4)GlcNAc(b1-6)[Gal(b1-3)]GalNAc
Method in brief: as §1

[3] = molecular target: Gal(b1-4)GlcNAc(b1-6)[Gal(b1-3)]GlcNAc
Method in brief: as §1

[4] = molecular target: Gal3S(b1-3)GalNAc
Method in brief: as §1

[5] = molecular target: Gal3S(b1-3)GlcNAc
Method in brief: as §1

[6] = molecular target: Gal3S(b1-3)[Fuc(a1-4)]GlcNAc
Method in brief: as §1

[7] = molecular target: Gal3S(b1-4)Glc
Method in brief: as §1

[8] = molecular target: Gal3S(b1-4)Glc6S
Method in brief: as §1

[9] = molecular target: Gal3S(b1-4)GlcNAc
Method in brief: as §1

[10] = molecular target: Gal3S(b1-4)GlcNAc6S
Method in brief: as §1

[11] = molecular target: Gal3S6S(b1-4)GlcNAc
Method in brief: as §1

[12] = molecular target: Gal3S6S(b1-4)GlcNAc6S
Method in brief: as §1

[13] = molecular target: Gal4S(b1-4)GlcNAc
Method in brief: as §1

[14] = molecular target: Gal4S6S(b1-4)GlcNAc
Method in brief: as §1

[15] = molecular target: Gal6S(b1-4)Glc
Method in brief: as §1

[16] = molecular target: Gal6S(b1-4)Glc6S
Method in brief: as §1

[17] = molecular target: Gal6S(b1-4)GlcNAc
Method in brief: as §1

[18] = molecular target: GalNAc(a1-3)Gal
Method in brief: as §1

[19] = molecular target: GalNAc(a1-3)GalNAc
Method in brief: as §1

[20] = molecular target: GalNAc(b1-3)Gal(a1-4)Gal(b1-4)GlcNAc
Method in brief: as §1

[21] = molecular target: GalNAc(b1-4)GlcNAc
Method in brief: as §1

[22] = molecular target: Glc(a1-4)Glc
Method in brief: as §1

[23] = molecular target: Glc(a1-6)Glc(a1-6)Glc
Method in brief: as §1

[24] = molecular target: Glc(b1-4)Glc
Method in brief: as §1

[25] = molecular target: Glc(b1-6)Glc
Method in brief: as §1

[26] = molecular target: GlcA(b1-3)Gal
Method in brief: as §1

[27] = molecular target: GlcA(b1-6)Gal
Method in brief: as §1

[28] = molecular target: GlcNAc(a1-3)Gal(b1-4)GlcNAc
Method in brief: as §1

[29] = molecular target: GlcNAc(a1-6)Gal(b1-4)GlcNAc
Method in brief: as §1

[30] = molecular target: GlcNAc(b1-2)Gal(b1-3)GlcNAc
Method in brief: as §1

[31] = molecular target: GlcNAc(b1-2)Man(a1-3)[GlcNAc(b1-2)Man(a1-6)]Man(b1-4)GlcNAc(b1-4)GlcNAc
Method in brief: as §1

[32] = molecular target: GlcNAc(b1-3)Gal
Method in brief: as §1

[33] = molecular target: GlcNAc(b1-3)Gal(b1-3)GalNAc
Method in brief: as §1

[34] = molecular target: GlcNAc(b1-3)Gal(b1-4)Glc
Method in brief: as §1

[35] = molecular target: GlcNAc(b1-3)Gal(b1-4)GlcNAc
Method in brief: as §1

[36] = molecular target: GlcNAc(b1-3)Gal(b1-4)GlcNAc(b1-3)Gal(b1-4)GlcNAc
Method in brief: as §1

[37] = molecular target: GlcNAc(b1-3)GalNAc
Method in brief: as §1

[38] = molecular target: GlcNAc(b1-3)[GlcNAc(b1-4)][GlcNAc(b1-6)]GlcNAc
Method in brief: as §1

[39] = molecular target: GlcNAc(b1-3)[GlcNAc(b1-6)]Gal(b1-4)GlcNAc
Method in brief: as §1

[40] = molecular target: GlcNAc(b1-3)[GlcNAc(b1-6)]GlcNAc
Method in brief: as §1

[41] = molecular target: GlcNAc(b1-4)Gal(b1-4)GlcNAc
Method in brief: as §1

[42] = molecular target: GlcNAc(b1-4)GlcNAc(b1-4)GlcNAc
Method in brief: as §1

[43] = molecular target: GlcNAc(b1-4)GlcNAc(b1-4)GlcNAc(b1-4)GlcNAc(b1-4)GlcNAc
Method in brief: as §1

[44] = molecular target: GlcNAc(b1-4)GlcNAc(b1-4)GlcNAc(b1-4)GlcNAc(b1-4)GlcNAc(b1-4)GlcNAc
Method in brief: as §1

[45] = molecular target: GlcNAc(b1-4)[GlcNAc(b1-6)]GalNAc
Method in brief: as §1

B1: TLEC1 (Arabidopsis thaliana), Q9C5Q9 (protein)
chain: MSGASSVSSICSSNVSLIPTGPQVFINFRGKDLRKGFMSFLKPALKKEKINVFIDEQEERGKYLISLFDTIGESKIALVIFSEGYCESHWCMDELVKIKEYMDQNRLIIIPIFYRLDLDVVKDLTGKFGDNFWDLVDKYQPEPKKLHKWTEALFSVCELFSLILPKHSDISDRDFVKSIVKAVKKVQKNFFQRRNGEIEYQDFSVPACKLTITMHESPNEEAVQVTVLNEFYQMKNQSPVPSYEFKFWVDLTRPKGNVFMIDARDLSIAWSEDSNHWTWLPLPNQNSNESVMEIAFLKSASWLDVAGKFDTRYLTPRTRYEVVFVVKLEYTFEWETLVKLKLDLPNTWEKPQEQSVDMFDYISDQWLDIPVGEFTTSKKNVGEISFAMYEHECQLWKSGLFVKGVTIRPKY
glycan array binding signal (z-score) [1]: -0.429
glycan array binding signal (z-score) [2]: -0.506
glycan array binding signal (z-score) [3]: 0.078
glycan array binding signal (z-score) [4]: -0.31
glycan array binding signal (z-score) [5]: -0.098
glycan array binding signal (z-score) [6]: -0.166
glycan array binding signal (z-score) [7]: 0.102
glycan array binding signal (z-score) [8]: 1.16
glycan array binding signal (z-score) [9]: 0.355
glycan array binding signal (z-score) [10]: 0.663
glycan array binding signal (z-score) [11]: 0.26
glycan array binding signal (z-score) [12]: 12.3
glycan array binding signal (z-score) [13]: -0.327
glycan array binding signal (z-score) [14]: 0.308
glycan array binding signal (z-score) [15]: 0.181
glycan array binding signal (z-score) [16]: 1.65
glycan array binding signal (z-score) [17]: -0.109
glycan array binding signal (z-score) [18]: -0.288
glycan array binding signal (z-score) [19]: 0.049
glycan array binding signal (z-score) [20]: -0.304
glycan array binding signal (z-score) [21]: -0.229
glycan array binding signal (z-score) [22]: -0.148
glycan array binding signal (z-score) [23]: -0.065
glycan array binding signal (z-score) [24]: -0.219
glycan array binding signal (z-score) [25]: 0.397
glycan array binding signal (z-score) [26]: -0.225
glycan array binding signal (z-score) [27]: -0.252
glycan array binding signal (z-score) [28]: 0.153
glycan array binding signal (z-score) [29]: -0.144
glycan array binding signal (z-score) [30]: -0.386
glycan array binding signal (z-score) [31]: -0.189
glycan array binding signal (z-score) [32]: -0.177
glycan array binding signal (z-score) [33]: -0.296
glycan array binding signal (z-score) [34]: -0.246
glycan array binding signal (z-score) [35]: -0.275
glycan array binding signal (z-score) [36]: -0.33
glycan array binding signal (z-score) [37]: 0.039
glycan array binding signal (z-score) [38]: 0.419
glycan array binding signal (z-score) [39]: -0.325
glycan array binding signal (z-score) [40]: 0.142
glycan array binding signal (z-score) [41]: 0.103
glycan array binding signal (z-score) [42]: -0.42
glycan array binding signal (z-score) [43]: -0.406
glycan array binding signal (z-score) [44]: -0.437
glycan array binding signal (z-score) [45]: 0.468
